Experimental data reported in PubChem BioAssay AID686979 (National Center for Advancing Translational Sciences (NCATS), 2013).
“And” between values parts separate entries of the source, which are not always exact repeats. Identical values can stand only once. Screen size: about 420,000 compounds; about 50,000 (12%) were called active. Inconclusive means that the source gave no clear call. Such entries were picked first, then a sample of the others. Calls come from the whole dose curve; as a rule, active = well fitted inhibition curve with a large enough effect; inconclusive = small, poorly fitted or top-dose-only effect; inactive = flat fitted curve, though single readings scatter. A potency beside an inconclusive call is a rough fit, not a confirmed value.

test: qHTS for Inhibitors of human tyrosyl-DNA phosphodiesterase 1 (TDP1): qHTS in cells in presence of CPT; settings: chicken DT40 Tdp1-/-;hTDP1 cells + 20 nM CPT, ATP luminescence, 48 h; activity change, negative = growth inhibition: at 46.2 µM (top of the series) unless noted; note: nearly all actives have a fitted effect of over 55% in size
In short: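 Chicken DT40 Tdp1-/- cells complemented with human TDP1, 400 cells/well, exposed to compounds plus 20 nM camptothecin for at least 48 h at 37 C; viability read as ATP content by CellTiter-Glo luminescence.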
% is set by controls: 0 for no effect and ±100 for the full control effect; potency is the fitted concentration of half-maximal effect; tags give direction and shape of the fitted curve.

Row | SMILES | Potency | activity change, negative = growth inhibition
1 | O=S(=O)(Nc1ccc(-c2ccc(N3CCCC3)nn2)cc1)c1ccccc1Cl | inconclusive: 7.31 µM [inhibitor, full curve, poor fit] | –
2 | CCc1cc2c(=O)c(-c3ccc4c(c3)OCCO4)c(C)oc2cc1OS(C)(=O)=O | inconclusive: 29.1 µM [inhibitor, single point] | –
3 | Cn1nc(CC#N)c2c(=N)n(N)cnc21 | – | inactive: 11.4%
4 | O=C(COc1ccc(Br)cc1CNCCc1ccccc1)NCc1ccccc1 | active: 11.6 µM | –
5 | CCCn1ncc(C(=O)NC2CCCN(Cc3ccc(Cl)cc3)C2)c1C (stereo unspecified) | inconclusive: 16.4 µM [inhibitor, single point] | –
6 | CCCC(c1nnnn1CC1CCCO1)N1CCN(c2nc3ccccc3s2)CC1 (stereo unspecified) | inconclusive: 29.1 µM [inhibitor, single point] | –
7 | Cc1ccc(C(=O)CN(CCCC(N)=O)S(=O)(=O)c2ccc([N+](=O)[O-])cc2)cc1 | – | inactive: -30%
8 | CCCCCCCCC1=NCCc2c1[nH]c1ccccc21 | inconclusive: 23.1 µM [inhibitor, single point] | –
9 | O=S1(=O)CC(O)C(N=Nc2c(O)n(Cc3ccccc3)c3ccccc23)C1 (stereo unspecified) | active: 16.4 µM | –
10 | CN(Cc1ccccc1)C(=O)C1CCCN(Cc2cccc(Cl)c2)C1 (stereo unspecified) | inactive and inconclusive: 29.1 µM [inhibitor, single point] | –
11 | CCCOC1CCCN(C(=O)c2ccc(OC3CCN(C(=O)COC)CC3)cc2)C1 (stereo unspecified) | – | inconclusive: -36.5% [inhibitor]
12 | COc1cc(OC)cc(-n2c3nc4ccccc4nc3c3c(=O)n(CC4CCCO4)cnc32)c1 (stereo unspecified) | inconclusive: 35.5 µM [inhibitor, single point] | –
13 | O=C(/C=C/c1ccccn1)c1cc(Cl)cc(Cl)c1O | inconclusive: 29.1 µM [inhibitor, single point] | –
14 | C[C@@H](NC(=O)c1nc[nH]c1C(=O)N[C@@H](CCCCNC(=O)OC(C)(C)C)C(=O)OC(C)(C)C)c1ccccc1 | inconclusive: 29.1 µM [inhibitor, single point] | –
15 | Cc1ccsc1C(=O)OCC(=O)Nc1c(C)n(C)n(-c2ccccc2)c1=O | – | inactive: 9.06%
16 | O=C(NCc1ccccc1)c1cccc(COc2ccc(Cl)cc2)c1 | – | inactive: -13.7%
17 | COc1ccc(C2C(C(=O)O)CCC(=O)N2c2ccc(C)cc2)cc1OC (stereo unspecified) | – | inactive: 0.0053%
18 | Oc1ccc(/C=N/Nc2ccccc2)cc1 | inconclusive: 13 µM [inhibitor, single point] | –
19 | CCOC(=O)c1cccc(NC(=O)C2CCCO2)c1 (stereo unspecified) | – | inactive: -5.48%
20 | Cc1ccc[n+](-c2[nH]c(=O)sc2/C=N/N=C(\[O-])c2cccnc2)c1 | – | inactive: 8.33%
21 | CC1CCc2cc(F)ccc2N1C(=O)CSc1nnc2c3ccccc3n(C)c2n1 (stereo unspecified) | active: 18.4 µM | –
22 | CC(Oc1ccc2c(-c3ccccc3)cc(=O)oc2c1)C(=O)NCCN1CCOCC1 (stereo unspecified) | inconclusive: 18.4 µM [inhibitor, partial curve, poor fit] | –
23 | O=C(COC(=O)CC1CCCC1)Nc1cc2c(cc1Cl)C(=O)c1ccccc1C2=O | inconclusive: 29.1 µM [inhibitor, single point] | –

Row | SMILES | Potency | activity change, negative = growth inhibition
24 | CC/C=C\C/C=C\C/C=C\C/C=C\C/C=C\CCCC(=O)O | inconclusive: 33.5 µM [inhibitor, single point] | –
25 | O=C1c2ccccc2C(=O)c2c1ccc(C(=O)N1CCCCC1)c2NCCO | inconclusive: 29.1 µM [inhibitor, single point] | –
26 | Cc1ccc2nc(N3CC(=O)Nc4ccccc43)nc(-c3ccccc3)c2c1 | inconclusive: 25.9 µM [inhibitor, single point] | –
27 | COc1ccc(NC(=O)c2cc(S(=O)(=O)Nc3ccc(OC)cc3)cs2)cc1 | inconclusive: 29.1 µM [inhibitor, single point] | –
28 | COc1ccc(N2CCN(S(=O)(=O)c3c(C)nc4sccn4c3=O)CC2)cc1 | – | inactive: -12.9%
29 | CC1CCN(C(=O)Oc2ccccc2)CC1 | – | inactive: 3.48%
30 | CCOc1ccc2nc(NCCNC(=O)C(C)C)c(C)cc2c1 | inconclusive: 29.1 µM [inhibitor, single point] | –
31 | COc1ccc(Oc2cn[nH]c2-c2ccc(OC)cc2O)cc1 | active: 25.9 µM | –
32 | CCCCNC(=O)C1(C)CCN1C(=O)c1ccc2c(c1)C(C)(C)CCC2(C)C (stereo unspecified) | active: 20.6 µM | –
33 | C/C(=N\Nc1nc(-c2ccccc2O)nc2ccccc12)c1ccccc1 | inconclusive: 1.3 µM [inhibitor, full curve] | –
34 | Cc1ccc(N2CCN(c3nc4ccccc4n4nnnc34)CC2)c(C)c1 | – | inactive: -1.02%
35 | CN(/N=C/c1ccccc1O)C(=S)c1ccccc1 | inconclusive: 29.1 µM [inhibitor, single point] | –
36 | CCN(Cc1ccccc1)Cc1c(F)cccc1F | inconclusive: 13 µM [inhibitor, partial curve, poor fit] | –
37 | CCC1(NC(C)=O)CC2CC1CC2NC(C)=O (stereo unspecified) | inconclusive: 16.4 µM [inhibitor, single point] | –
38 | Cc1ccc(-c2ccc(SCC(=O)Nc3ccc4c(c3)OCCO4)nn2)cc1 | inconclusive: 29.1 µM [inhibitor, single point] | –
39 | CC(C)OCCCNC(=O)C1CCN(S(=O)(=O)N2CCCC2)CC1 | – | inactive: -7.72%
40 | CCOC(=O)N1CCN(S(=O)(=O)c2ccc(Cl)cc2)CC1 | – | inactive: 0.455%
41 | COc1ccc(C(CNC(=O)c2ccc(NS(=O)(=O)c3ccc4c(c3)OCCO4)cc2)N(C)C)cc1 (stereo unspecified) | inconclusive: 29.1 µM [inhibitor, single point] | –
42 | Cc1c(C(=O)Nc2cccc(Cl)c2)cn2c(nc3ccccc32)c1C#N | active: 16.4 µM | –
43 | COc1cc(NC(=O)c2ccc(S(=O)(=O)N(C)c3ccccc3)cc2)cc(OC)c1 | inconclusive: 20.6 µM [inhibitor, single point] | –
44 | COc1ccccc1NC(=O)CCC(=O)OCc1ccc(Cl)cc1 | – | inactive: -13%
45 | NC(=O)c1c(NC(=O)Cn2cnc([N+](=O)[O-])n2)sc2c1CCCC2 | inconclusive: 16.4 µM [inhibitor, single point] | –
46 | NC(=O)c1ccsc1NC(=O)COC(=O)Cc1ccccc1[N+](=O)[O-] | active: 23.1 µM | –
